{"source": "patent EP4647071A1", "about": "“MITOCHONDRIAL COMPLEX I MODULATOR FOR USE IN THE TREATMENT OF ARTHRITIS” (Istesso Therapeutics Limited, priority 2024, dated 2025)", "test_system": "patients with moderate to severe active rheumatoid arthritis", "experiment": "HAQ-disability index (HAQ-DI), clinical study", "settings": "for HAQ-DI CFB, Mean (SD): change from baseline; for % patients at week 12, CID: ≥-0.68 / % patients at week 12, MCID: ≥-0.22 / % patients at week 12, Normative (≤0.25) / % patients at week 12, Remission (≤0.5): HAQ-DI", "note": "Marks after values point to notes of the source that are not given here."}
{"smiles": "C[C@]1(O)CC[C@H](NS(=O)(=O)c2ccc(-c3ccc(Cl)cc3C#N)cc2)CC1", "note": "[HMC-C-01-A]", "values": [{"measurement": "HAQ-DI CFB, Mean (SD)", "setting": "5 mg once daily", "value": "-0.6 (0.5)*"}, {"measurement": "HAQ-DI CFB, Mean (SD)", "setting": "20 mg once daily", "value": "-0.4 (0.6)"}, {"measurement": "HAQ-DI CFB, Mean (SD)", "setting": "40 mg once daily", "value": "-0.6 (0.7)^a"}, {"measurement": "% patients at week 12, CID: ≥-0.68", "setting": "5 mg once daily", "value": 33.4, "unit": "%"}, {"measurement": "% patients at week 12, MCID: ≥-0.22", "setting": "5 mg once daily", "value": 78.2, "unit": "%"}, {"measurement": "% patients at week 12, Normative (≤0.25)", "setting": "5 mg once daily", "value": 14.3, "unit": "%"}, {"measurement": "% patients at week 12, Remission (≤0.5)", "setting": "5 mg once daily", "value": 22.6, "unit": "%"}, {"measurement": "% patients at week 12, CID: ≥-0.68", "setting": "20 mg once daily", "value": 24.5, "unit": "%"}, {"measurement": "% patients at week 12, MCID: ≥-0.22", "setting": "20 mg once daily", "value": 59.2, "unit": "%"}, {"measurement": "% patients at week 12, Normative (≤0.25)", "setting": "20 mg once daily", "value": 8.9, "unit": "%"}, {"measurement": "% patients at week 12, Remission (≤0.5)", "setting": "20 mg once daily", "value": 14.5, "unit": "%"}, {"measurement": "% patients at week 12, CID: ≥-0.68", "setting": "40 mg once daily", "value": 39.7, "unit": "%"}, {"measurement": "% patients at week 12, MCID: ≥-0.22", "setting": "40 mg once daily", "value": 67.9, "unit": "%"}, {"measurement": "% patients at week 12, Normative (≤0.25)", "setting": "40 mg once daily", "value": 18.2, "unit": "%"}, {"measurement": "% patients at week 12, Remission (≤0.5)", "setting": "40 mg once daily", "value": 28.8, "unit": "%"}]}
